For some of these results: The name of at least one read-out is uncertain. For some of these results: At least one compound was matched to its structure with a doubt left.
Tests used:
[1] = tested on: Gastric lesions induced by 80% ethanol; experiment: Gastric lesions induced by ethanol (ulcer index by severity scores); type: in vivo, Albino Wistar rats; details: orally, 1 h before 80% ethanol
Method: Albino Wistar rats of either sex, approximately the same age, weighing 150 to 200 g and fed on a diet of standard chow were used in this study. They were randomly divided into experimental groups of six rats each. Compounds (N-1 to N-18) 12.5, 25, and 50 mg/kg were given orally in the anti-ulcer studies and intraperitoneally for gastric secretion evaluation. The rats were sacrificed, and the stomachs removed and opened along the greater curvature, After washing with saline, the gastric lesions were quantified by a person unaware of the treatments. The animal study protocol was approved by the Research and Ethics Committee of the Experimental Animal Care Society, College of Pharmacy, King Saud University, Riyadh, Saudi Arabia.
Gastric lesions induced by ethanol: Albino rats of either sex weighing between (150-200 g) are divided into groups. The animals were fasted for 24 hours with free access to water. Animals were given test drugs or standard drug. One hour later 1 mL/200 gm of 80% ethanol is administered orally to each animal. The animals were anaesthetized 1 hour latter with anesthetic ether and stomach was incised along the greater curvature and ulceration was scored. The number of ulcers and the length of each ulcer were measured. Ulcer index was calculated using severity scores. The mucosal damage was examined by means of a magnifying glass. For each stomach the mucosal damage was assessed according to the following scoring system: 0.5 redness; 1.0 spot ulcers; 1.5 hemorrhagic streaks; 2.0 ulcers<3, but≦5; 3.0 ulcers>5. Table 1 provides the effect of compounds on gastric lesions induced by 80% ethanol (mean±SE).

[2] = tested on: gastric mucosa of rats treated with 80% Ethanol; experiment: Histopathological evaluation of gastric tissue; type: in vivo, Albino Wistar rats; details: 50 mg/kg; FIG. 15B-15F
Method: Histopathological evaluation: Gastric tissue samples were fixed in neutral buffered formalin for 24 hours. Sections of gastric tissue were histopathologically examined to study the ulcerogenic and/or anti-ulcerogenic activity of compounds (N-3, N-8, N-11, and N-15). The tissues were fixed in 10% buffered formalin and processed using a VIP tissue processor. The processed tissues were embedded in paraffin blocks and sections about […] thick were cut using an American optical rotary microtome. These sections were stained with haematoxylin and eosin using routine procedures. The slides were examined microscopically for pathomorphological changes such as congestion, hemorrhage, edema, and erosions using an arbitrary scale for severity assessment of these changes (FIGS. 3-14).

SMILES | Gastric lesions induced by 80% ethanol, ulcer index, Mean ± SE ([1]; compound 12.5 mg/kg) | Gastric lesions induced by 80% ethanol, ulcer index, Mean ± SE ([1]; compound 25 mg/kg) | Gastric lesions induced by 80% ethanol, ulcer index, Mean ± SE ([1]; compound 50 mg/kg) | Gastric section, effect on gastric mucosa (histology) [2]
O=C1NC=C(C(=O)c2ccc(N3CCCCC3)cc2)C(c2ccccc2)N1 (stereo not shown) [Compound N-1, 4-Phenyl-5-[4-(piperidin-1-yl)benzoyl]-3,4-dihydropyrimidin-2(1H)-one] | 7.25 ± 0.47 | 6.75 ± 0.25 | 6.25 ± 0.47 | 
O=C1NC=C(C(=O)c2ccc(N3CCCCC3)cc2)C(c2ccccc2[N+](=O)[O-])N1 (stereo not shown) [Compound N-2, 4-(2-Nitrophenyl)-5-[4-(piperidin-1-yl)benzoyl]-3,4-dihydropyrimidine-2(1H)-one] | 6.0 ± 0.16 | 3.50 ± 0.28 | 5.00 ± 0.16 | 
O=C1NC=C(C(=O)c2ccc(N3CCCCC3)cc2)C(c2ccc([N+](=O)[O-])cc2)N1 (stereo not shown) [Compound N-3, 4-(4-Nitrophenyl)-5-[4-(piperidin-1-yl)benzoyl]-3,4-dihyropyrimidin-2(1H)-one] | 5.0 ± 0.40 | 3.5 ± 0.2 | 3.00 ± 0.4 | 
O=C1NC=C(C(=O)c2ccc(N3CCCCC3)cc2)C(c2cccc([N+](=O)[O-])c2)N1 (stereo not shown) [Compound N-4, 4-(3-Nitrophenyl)-5-[4-(piperidin-1-yl)benzoyl]-3,4-dihydropyrimidin-2(1H)-one] | 6.75 ± 0.25 | 5.50 ± 0.08 | 6.25 ± 0.25 | 
O=C1NC=C(C(=O)c2ccc(N3CCCCC3)cc2)C(c2ccc(Cl)cc2)N1 (stereo not shown) [Compound N-5, 4-(4-Chlorophenyl)-5-[4-(piperidin-1-yl)benzoyl]-3,4-dihydropyrimidin-2(1H)-one] | 7.0 ± 0.4 | 6.5 ± 0.28 | 6.25 ± 0.47 | 
O=C1NC=C(C(=O)c2ccc(N3CCCCC3)cc2)C(c2ccc(Cl)cc2Cl)N1 (stereo not shown) [Compound N-6, 4-(2,4-Dichlorophenyl)-5-[4-(piperidin-1-yl)benzoyl]-3,4-dihydropyrimidin-2(1H)-one] | 7.25 ± 0.25 | 6.5 ± 0.2 | 6.25 ± 0.25 | 
COc1ccc(C2NC(=O)NC=C2C(=O)c2ccc(N3CCCCC3)cc2)cc1OC (stereo not shown) [Compound N-7, 4-(3,4-Dimethoxyphenyl)-5-[4-(piperidin-1-yl)benzoyl]-3,4-dihydropyrimidin-2(1H)-one] | 6.75 ± 0.25 | 5.5 ± 0.2 | 5.0 ± 0.4 | 
COc1ccccc1C1NC(=O)NC=C1C(=O)c1ccc(N2CCCCC2)cc1 (stereo not shown) [Compound N-8, 4-(2-Methoxyphenyl)-5-[4-(piperidin-1-yl)benzoyl]-3,4-dihydropyrimidin-2(1H)-one] | 5.0 ± 0.4 | 3.7 ± 0.4 | 3.5 ± 0.2 | 
O=C1NC=C(C(=O)c2ccc(N3CCCCC3)cc2)C(c2ccc(O)cc2)N1 (stereo not shown) [Compound N-9, 4-(4-Hydroxyphenyl)-5-[4-(piperidin-1-yl)benzoyl]-3,4-dihydropyrimidin-2(1H)-one] | 7.2 ± 0.25 | 6.5± | 6.0 ± 0.4 | 
O=C1NC=C(C(=O)c2ccc(N3CCCCC3)cc2)C(c2cccc(O)c2)N1 (stereo not shown) [Compound N-10, 4-(3-Hydroxyphenyl)-5-[4-(piperidin-1-yl)benzoyl]-3,4-dihydropyrimidin-2(1H)-one] | 6.0 ± 0.4 | 5.75 ± 0.2 | 5.5 ± 0.2 | 
CN(C)c1ccc(C2NC(=O)NC=C2C(=O)c2ccc(N3CCCCC3)cc2)cc1 (stereo not shown) [Compound N-11, 4-(4-Dimethylaminophenyl)-5-[4-(piperidin-1-yl)benzoyl]-3,4-dihydropyrimidin-2(1H)-one] | 6.0 ± 0.4 | 4.0 ± 0.1 | 3.0 ± 0.4 | 
COc1cccc(C2NC(=O)NC=C2C(=O)c2ccc(N3CCCCC3)cc2)c1 (stereo not shown) [Compound N-12, 4-(3-Methoxyphenyl)-5-[4-(piperidin-1-yl)benzoyl]-3,4-dihydropyrimidin-2(1H)-one] | 7.0 ± 0.4 | 6.5 ± 0.2 | 6.25 ± 0.4 | 
CCOc1ccc(C2NC(=O)NC=C2C(=O)c2ccc(N3CCCCC3)cc2)cc1 (stereo not shown) [Compound N-13, 4-(4-Ethoxyphenyl)-5-[4-(piperidin-1-yl)benzoyl]-3,4-dihydropyrimidin-2(1H)-one] | 7.0 ± 0.4 | 6.5 ± 0.2 | 6.0 ± 0.4 | 
COc1cc(OC)c(C2NC(=O)NC=C2C(=O)c2ccc(N3CCCCC3)cc2)cc1OC (stereo not shown) [Compound N-14, 4-(2,4,5-Trimethoxyphenyl)-5-[4-(piperidin-1-yl)benzoyl]-3,4-dihydropyrimiden-2(1H)-one] | 6.5 ± 0.2 | 5.25 ± 0.4 | 4.5 ± 0.2 | 
COc1ccc(C2NC(=O)NC=C2C(=O)c2ccc(N3CCCCC3)cc2)c(OC)c1OC (stereo not shown) [Compound N-15, 4-(2,3,4-Trimethoxyphenyl)-5-[4-(piperidin-1-yl)benzoyl]-3,4-dihydropyrimidin-2(1H)-one] | 5.0 ± 0.4 | 3.5 ± 0.2 | 2.5 ± 0.2 | 
COc1cc(C2NC(=O)NC=C2C(=O)c2ccc(N3CCCCC3)cc2)cc(OC)c1OC (stereo not shown) [Compound N-16, 4-(3,4,5-Trimethoxyphenyl)-5-[4-(piperidin-1-yl)benzoyl]-3,4-dihydropyrimidin-2(1H)-one] | 6.5 ± 0.2 | 5.75 ± 0.4 | 5.5 ± 0.2 | 
COc1cc(OC)c(C2NC(=O)NC=C2C(=O)c2ccc(N3CCCCC3)cc2)c(OC)c1 (stereo not shown) [Compound N-17, 4-(2,4,6-Trimethoxyphenyl)-5-[4-(piperidin-1-yl)benzoyl]-3,4-dihydropyrimidin-2(1H)-one] | 7.00 ± 0.4 | 5.2 ± 0.4 | 4.5 ± 0.4 | 
COc1ccc(C2NC(=O)NC=C2C(=O)c2ccc(N3CCCCC3)cc2)c(OC)c1 (stereo not shown) [Compound N-18, 4-(2,4-Dimethoxyphenyl)-5-[4-(piperidin-1-yl)benzoyl]-3,4-dihydropyrimiden-2(1H)-one] | 7.2 ± 0.2 | 6.5 ± 0.2 | 6.0 ± 0.4 | 
CNC(=C[N+](=O)[O-])NCCSCc1ccc(CN(C)C)o1 [Ranitidine, reference compound] |  |  |  | normal mucosa

Source: patent US9856232B1, “Dihydropyrimidinone derivatives” (KING SAUD UNIVERSITY, priority 2017, dated 2018)
